# Results published in the supplement of paper PMC8728848.
# The other results are listed elsewhere or left out.
# B1: Banana lectin (Musa acuminata) (protein)
# chain: MNGAIKVGAWGGNGGSAFDMGPAYRIISVKIFSGDVVDGVDVTFTYYGKTETRHYGGSGGTPHEIVLQEGEYLVGMAGEVANYTGAVVLGKLGFSTNKKAYGPFGNTGGTPFSLPIAAGKISGFFGRGGKFLDAIGVYLEPLEHHHHHH
# Assays:
# Experiment in all cases: glycan array binding signal (z-score within array); higher = stronger binding
# Conditions in all cases: glycan notation: IUPAC condensed, linker removed; mutation: H84T
# [1] = target: Gal(a1-3)Gal(b1-4)GlcNAc
# Summary of the method: (§1)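 The binding signal is a Z-score computed within each array and averaged over linkers. Arrays of the same protein sequence at different concentrations or buffers were also averaged together. Data originate from 3228 arrays in the Consortium for Functional Glycomics database, kept only where the protein sequence was available.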
# [2] = target: Gal(a1-3)Gal(b1-4)GlcNAc(b1-2)Man
# Summary of the method: as §1
# [3] = target: Gal(a1-3)Gal(b1-4)GlcNAc(b1-2)Man(a1-3)[Gal(a1-3)Gal(b1-4)GlcNAc(b1-2)Man(a1-6)]Man(b1-4)GlcNAc(b1-4)GlcNAc
# Summary of the method: as §1
# [4] = target: Gal(a1-3)Gal(b1-4)GlcNAc(b1-3)GalNAc
# Summary of the method: as §1
# [5] = target: Gal(a1-3)Gal(b1-4)GlcNAc(b1-6)GalNAc
# Summary of the method: as §1
# [6] = target: Gal(a1-3)Gal(b1-4)[Fuc(a1-3)]GlcNAc
# Summary of the method: as §1
# [7] = target: Gal(a1-3)Gal(b1-4)[Fuc(a1-3)]GlcNAc(b1-2)Man(a1-3)[Gal(a1-3)Gal(b1-4)[Fuc(a1-3)]GlcNAc(b1-2)Man(a1-6)]Man(b1-4)GlcNAc(b1-4)GlcNAc
# Summary of the method: as §1
# [8] = target: Gal(a1-3)GalNAc
# Summary of the method: as §1
# [9] = target: Gal(a1-3)[Gal(a1-4)]Gal(b1-4)GlcNAc
# Summary of the method: as §1
# [10] = target: Gal(a1-4)Gal(b1-3)GlcNAc(b1-2)Man(a1-3)[Gal(a1-4)Gal(b1-3)GlcNAc(b1-2)Man(a1-6)]Man(b1-4)GlcNAc(b1-4)GlcNAc
# Summary of the method: as §1
# [11] = target: Gal(a1-4)Gal(b1-4)Glc
# Summary of the method: as §1
# [12] = target: Gal(a1-4)Gal(b1-4)GlcNAc
# Summary of the method: as §1
# [13] = target: Gal(a1-4)Gal(b1-4)GlcNAc(b1-2)Man(a1-3)[Gal(a1-4)Gal(b1-4)GlcNAc(b1-2)Man(a1-6)]Man(b1-4)GlcNAc(b1-4)GlcNAc
# Summary of the method: as §1
# [14] = target: Gal(a1-4)Gal(b1-4)GlcNAc(b1-3)Gal(b1-4)Glc
# Summary of the method: as §1
# [15] = target: Gal(a1-4)GlcNAc
# Summary of the method: as §1
# [16] = target: Gal(a1-6)Glc
# Summary of the method: as §1
# [17] = target: Gal(b1-2)Gal
# Summary of the method: as §1
# [18] = target: Gal(b1-3)Gal
# Summary of the method: as §1
# [19] = target: Gal(b1-3)Gal(b1-4)GlcNAc
# Summary of the method: as §1
# [20] = target: Gal(b1-3)GalNAc
# Summary of the method: as §1
# [21] = target: Gal(b1-3)GalNAc(a1-3)[Fuc(a1-2)]Gal(b1-4)Glc
# Summary of the method: as §1
# [22] = target: Gal(b1-3)GalNAc(a1-3)[Fuc(a1-2)]Gal(b1-4)GlcNAc
# Summary of the method: as §1
# [23] = target: Gal(b1-3)GalNAc(b1-3)Gal
# Summary of the method: as §1
# [24] = target: Gal(b1-3)GalNAc(b1-3)Gal(a1-4)Gal(b1-4)Glc
# Summary of the method: as §1
# [25] = target: Gal(b1-3)GalNAc(b1-4)Gal(b1-4)Glc
# Summary of the method: as §1
# [26] = target: Gal(b1-3)GalNAc(b1-4)[Neu5Ac(a2-3)]Gal(b1-4)Glc
# Summary of the method: as §1
# [27] = target: Gal(b1-3)GlcNAc
# Summary of the method: as §1
# [28] = target: Gal(b1-3)GlcNAc(a1-3)Gal(b1-4)GlcNAc
# Summary of the method: as §1
# [29] = target: Gal(b1-3)GlcNAc(a1-6)Gal(b1-4)GlcNAc
# Summary of the method: as §1
# [30] = target: Gal(b1-3)GlcNAc(b1-2)Man
# Summary of the method: as §1
# [31] = target: Gal(b1-3)GlcNAc(b1-2)Man(a1-3)[Gal(b1-3)GlcNAc(b1-2)Man(a1-6)]Man(b1-4)GlcNAc(b1-4)GlcNAc
# Summary of the method: as §1
# [32] = target: Gal(b1-3)GlcNAc(b1-2)Man(a1-3)[Gal(b1-3)GlcNAc(b1-2)Man(a1-6)]Man(b1-4)GlcNAc(b1-4)[Fuc(a1-6)]GlcNAc
# Summary of the method: as §1
# [33] = target: Gal(b1-3)GlcNAc(b1-2)Man(a1-3)[GlcNAc(b1-4)][Gal(b1-3)GlcNAc(b1-2)Man(a1-6)]Man(b1-4)GlcNAc(b1-4)GlcNAc
# Summary of the method: as §1
# [34] = target: Gal(b1-3)GlcNAc(b1-2)[Gal(b1-3)GlcNAc(b1-6)]Man(a1-6)[Gal(b1-3)GlcNAc(b1-2)Man(a1-3)]Man(b1-4)GlcNAc(b1-4)GlcNAc
# Summary of the method: as §1
# [35] = target: Gal(b1-3)GlcNAc(b1-3)Gal(b1-3)GlcNAc
# Summary of the method: as §1
# [36] = target: Gal(b1-3)GlcNAc(b1-3)Gal(b1-4)Glc
# Summary of the method: as §1
# [37] = target: Gal(b1-3)GlcNAc(b1-3)Gal(b1-4)GlcNAc
# Summary of the method: as §1
# [38] = target: Gal(b1-3)GlcNAc(b1-3)Gal(b1-4)GlcNAc(b1-2)Man(a1-3)[Gal(b1-3)GlcNAc(b1-3)Gal(b1-4)GlcNAc(b1-2)Man(a1-6)]Man(b1-4)GlcNAc(b1-4)GlcNAc
# Summary of the method: as §1
# [39] = target: Gal(b1-3)GlcNAc(b1-3)Gal(b1-4)GlcNAc(b1-2)[Gal(b1-3)GlcNAc(b1-3)Gal(b1-4)GlcNAc(b1-6)]Man(a1-6)[Gal(b1-3)GlcNAc(b1-3)Gal(b1-4)GlcNAc(b1-2)Man(a1-3)]Man(b1-4)GlcNAc(b1-4)[Fuc(a1-6)]GlcNAc
# Summary of the method: as §1
# [40] = target: Gal(b1-3)GlcNAc(b1-3)Gal(b1-4)GlcNAc(b1-3)Gal(b1-4)GlcNAc(b1-2)[Gal(b1-3)GlcNAc(b1-3)Gal(b1-4)GlcNAc(b1-3)Gal(b1-4)GlcNAc(b1-6)]Man(a1-6)[Gal(b1-3)GlcNAc(b1-3)Gal(b1-4)GlcNAc(b1-3)Gal(b1-4)GlcNAc(b1-2)Man(a1-3)]Man(b1-4)GlcNAc(b1-4)[Fuc(a1-6)]GlcNAc
# Summary of the method: as §1
# [41] = target: Gal(b1-3)GlcNAc(b1-3)Gal(b1-4)GlcNAc(b1-6)[Gal(b1-3)GlcNAc(b1-3)]Gal(b1-4)Glc
# Summary of the method: as §1
# [42] = target: Gal(b1-3)GlcNAc(b1-3)Gal(b1-4)[Fuc(a1-3)]GlcNAc
# Summary of the method: as §1
# [43] = target: Gal(b1-3)GlcNAc(b1-3)Gal(b1-4)[Fuc(a1-3)]GlcNAc(b1-6)[Gal(b1-3)GlcNAc(b1-3)]Gal(b1-4)Glc
# Summary of the method: as §1
# [44] = target: Gal(b1-3)GlcNAc(b1-3)GalNAc
# Summary of the method: as §1
# [45] = target: Gal(b1-3)GlcNAc(b1-6)Gal(b1-4)GlcNAc
# Summary of the method: as §1
binder,measurement,setting,value
B1,glycan array binding signal (z-score),[1],-0.199
same,glycan array binding signal (z-score),[2],-0.181
same,glycan array binding signal (z-score),[3],-0.171
same,glycan array binding signal (z-score),[4],-0.183
same,glycan array binding signal (z-score),[5],-0.173
same,glycan array binding signal (z-score),[6],-0.185
same,glycan array binding signal (z-score),[7],-0.095
same,glycan array binding signal (z-score),[8],-0.171
same,glycan array binding signal (z-score),[9],-0.181
same,glycan array binding signal (z-score),[10],0.301
same,glycan array binding signal (z-score),[11],-0.178
same,glycan array binding signal (z-score),[12],-0.178
same,glycan array binding signal (z-score),[13],-0.13
same,glycan array binding signal (z-score),[14],-0.179
same,glycan array binding signal (z-score),[15],-0.156
same,glycan array binding signal (z-score),[16],-0.199
same,glycan array binding signal (z-score),[17],-0.197
same,glycan array binding signal (z-score),[18],-0.164
same,glycan array binding signal (z-score),[19],-0.17
same,glycan array binding signal (z-score),[20],-0.188
same,glycan array binding signal (z-score),[21],-0.19
same,glycan array binding signal (z-score),[22],-0.213
same,glycan array binding signal (z-score),[23],-0.166
same,glycan array binding signal (z-score),[24],-0.164
same,glycan array binding signal (z-score),[25],-0.163
same,glycan array binding signal (z-score),[26],-0.147
same,glycan array binding signal (z-score),[27],-0.182
same,glycan array binding signal (z-score),[28],1.72
same,glycan array binding signal (z-score),[29],-0.108
same,glycan array binding signal (z-score),[30],-0.15
same,glycan array binding signal (z-score),[31],0.18
same,glycan array binding signal (z-score),[32],-0.114
same,glycan array binding signal (z-score),[33],0.873
same,glycan array binding signal (z-score),[34],0.324
same,glycan array binding signal (z-score),[35],-0.182
same,glycan array binding signal (z-score),[36],-0.157
same,glycan array binding signal (z-score),[37],-0.168
same,glycan array binding signal (z-score),[38],-0.111
same,glycan array binding signal (z-score),[39],0.665
same,glycan array binding signal (z-score),[40],0.571
same,glycan array binding signal (z-score),[41],-0.16
same,glycan array binding signal (z-score),[42],-0.181
same,glycan array binding signal (z-score),[43],-0.191
same,glycan array binding signal (z-score),[44],-0.179
same,glycan array binding signal (z-score),[45],-0.188
